Test results published in ChEMBL document CHEMBL3351582, “A simple, general approach of allosteric coagulation enzyme inhibition through monosulfated hydrophobic scaffolds” (Bioorg Med Chem Lett, 2014).

Experiments:
[1] = system: CCOC(=O)c1c(C)[nH]c2ccc(OCc3c(C(=O)OCC)c4cc(OS(=O)(=O)O)ccc4n3C(=O)OC(C)(C)C)cc12; settings: Homo sapiens; 60 uM
[2] = system: CCOC(=O)c1c(C)[nH]c2ccc(OCc3c(C(=O)OCC)c4cc(OS(=O)(=O)O)ccc4n3C(=O)OC(C)(C)C)cc12; settings: Homo sapiens; 20 uM
[3] = system: CCOC(=O)c1c(C)[nH]c2ccc(OCc3c(C(=O)OCC)c4cc(OS(=O)(=O)O)ccc4n3C(=O)OC(C)(C)C)cc12; settings: Homo sapiens; 60 uM; remark: listed apart in the source
[4] = system: CCOC(=O)c1c(C)[nH]c2ccc(OCc3c(C(=O)OCC)c4cc(OS(=O)(=O)O)ccc4n3C(=O)OC(C)(C)C)cc12; settings: Homo sapiens; 40 uM
[5] = system: CCOC(=O)c1c(C)[nH]c2ccc(OCc3c(C(=O)OCC)c4cc(OS(=O)(=O)O)ccc4n3C(=O)OC(C)(C)C)cc12; settings: Homo sapiens; 20 uM; remark: listed apart in the source
[6] = system: CCOC(=O)c1c(C)[nH]c2ccc(OCc3c(C(=O)OCC)c4cc(OS(=O)(=O)O)ccc4n3C(=O)OC(C)(C)C)cc12; settings: Homo sapiens; 40 uM; remark: listed apart in the source

Coagulation factor XI (Homo sapiens) (letters omitted)
Vmax [1]: 23.8 mAU/min/µM
Km [2]: 295 µM
Km [3]: 1270 µM
Km [4]: 328 µM
Vmax [5]: 32.3 mAU/min/µM
Vmax [6]: 30.4 mAU/min/µM
